Structures are written as SMILES. The whole screen tested about 150,000 compounds, of which about 540 (0.36%) showed an effect of 50% or more. The list shows a part of the results.

The subject of this experiment is Plasmodium falciparum. Briefly: Primary screen in NF54 nanoGlo assay, in single point, at 2uM, 72h; a lower Z score goes with more inhibition. In kind it is functional, Erythrocyte. Conditions: timepoint 72 hour.
Broadly, the % Inhibition is the drop in the measured response relative to a control, in per cent. Take `CCc1c(C(=O)N2CC[C@](C)(C(=O)NC)C2)ccn1C`: the “% Inhibition” value was determined as 2% and the Z score is reported as -0.26.
On to `COc1ccc(CCc2nc3nccc(-c4cccnc4)n3n2)cc1`, for which the “% Inhibition” value is listed as -1% and the Z score is 0.13.
Take `CO[C@@]12CC[C@@H](Oc3ccccn3)C[C@@H]1N(Cc1nc(C(C)C)no1)CC2`: the “% Inhibition” value is -4% and the Z score came out at 0.83.
As to `O=C(Nc1cccc(C(F)(F)F)c1)c1scnc1CCc1ccncc1`, the “% Inhibition” value was -12% and the Z score was 1.56.
Taken in the same sequence, the figures for `CCCn1nc(C)cc1NC(=O)c1cnc2ccccc2n1` were -11% and 1.29.
For `O=C(NCc1ccccc1)N1CCOC2(CCS(=O)(=O)CC2)C1`, the “% Inhibition” value is listed as -18% and the Z score amounted to 1.91.
In the same order, the values of `Cc1c(C)c(C(=O)NCc2ccco2)n(Cc2ccc(F)cc2)c1C` are -5% and 0.86.
Taken in the same sequence, the figures for `O=C(NCc1nnc2n1CCOC2)[C@]1(c2ccccc2)CCCO1` were -16% and 2.18.
Taken in the same sequence, the figures for `Cc1ccc(CN2CCN(C(=O)c3c[nH]c(=O)c(Cl)c3)C[C@@H]2CCO)o1` were -4% and 0.56.
Regarding `CC(C)c1cc(C(=O)N2CCC[C@@H]2C(=O)O)n[nH]1`, the “% Inhibition” value is -6% and the Z score is reported as 0.65.
In the same order, the values of `CC1CCN([C@@H](CNC(=O)c2ncoc2-c2cccs2)C(C)C)CC1` are 2% and -0.3.
In the case of `Cc1nc2c(c(N3CCN(CC(F)(F)CO)CC3)n1)CCCC2`, the “% Inhibition” value was -6% and the Z score amounted to 1.01.
Taken in the same sequence, the figures for `CC1CC(C)CC(C(=O)N(C)Cc2nnc3c(=O)n(C)ccn23)C1` (configuration not stated) were -7% and 0.87.
In the same order, the values of `CCN1CCN(C2=NCCN2S(=O)(=O)c2ccc(C)cc2C)CC1` are -16% and 1.85.
Consider `CC(C)Oc1ccc(F)cc1S(=O)(=O)Nc1ccn(C)c(=O)n1`, for which the “% Inhibition” value was 8% and the Z score is given as -1.6.
Consider `Cc1ccc2nc(N3CCC(C(=O)NCCc4cccs4)CC3)[nH]c2c1`, for which the “% Inhibition” value is 4% and the Z score is listed as -0.74.
In the same order, the values of `C[C@H]1CCCCN1c1nnc(C(=O)NCCN2CCCCC2)c2ccccc12` are -16% and 1.95.
In the same order, the values of `CC(C)[C@@H](CO)NCc1csc(C2CCCC2)n1` are -9% and 1.02.
Taken in the same sequence, the figures for `COCCn1c(N)c(N(Cc2ccccc2)C(=O)c2c(C)noc2C)c(=O)[nH]c1=O` were 10% and -1.36.
Regarding `Cn1c(=O)n(CC(=O)N2CCO[C@H]3COCC[C@H]32)c2ccccc21`, the “% Inhibition” value was -9% and the Z score came out at 1.48.
Taken in the same sequence, the figures for `CC(=O)N1CCN(C(=O)c2cccc(-c3nc4ccccc4o3)c2)CC1` were -14% and 1.8.
Consider `Cc1nn(C)cc1C(=O)N1CCC(c2nnc(Cn3cccn3)n2C)CC1`, for which the “% Inhibition” value is given as -16% and the Z score is 3.09.
In the case of `NC(=O)c1ccc(NCC2(Cn3ccnc3)CC2)nc1`, the “% Inhibition” value is listed as -9% and the Z score stood at 1.33.
In the same order, the values of `Cn1ncc2c(NCc3ccccc3)nc(N3CCC(N4CCCCC4)CC3)nc21` are 2% and -0.39.
On to `CC1CN(CC(=O)NC2CCCC(C)C2C)CC(C)O1` (configuration not stated), for which the “% Inhibition” value is -3% and the Z score turned out to be 0.38.
Taken in the same sequence, the figures for `COc1ccc(-c2csc(-n3ncc(-c4ccccn4)c3N)n2)cc1` were -6% and 0.72.
Taken in the same sequence, the figures for `CCCN1C(=O)N[C@@H](CC(=O)N(C)Cc2nc3ccc(F)cc3[nH]2)C1=O` were -18% and 1.59.
Taken in the same sequence, the figures for `O=C1COC2(CCN(C(=O)OCc3ccccc3)CC2)CN1` were -29% and 3.46.
On to `CCC(C)(C)NC(=O)COc1cccc(C)c1`, for which the “% Inhibition” value was -2% and the Z score is given as 0.39.
Taken in the same sequence, the figures for `c1csc(-c2noc(-c3cscn3)n2)c1` were -5% and 1.
In the same order, the values of `CC(CN1CCN(C)CC1)NC1CCCCC1C1CCCCC1` (configuration not stated) are -1% and 0.12.
Regarding `O=C1CN(CCCO)C(=O)CCc2ccc(cc2)Oc2cccc(c2)CO[C@H]2CCN(C(=O)CN3CCCCC3=O)C[C@@H]2N1`, the “% Inhibition” value is -6% and the Z score is given as 1.12.
In the same order, the values of `COc1cc(Br)ccc1CCCNC(=O)[C@H]1CCOC1` are -2% and 0.41.
In the same order, the values of `CS(=O)(=O)N(CCN1CCCCC1)C1CN(C(=O)C2CCCCC2)C1` are -7% and 0.97.
Taken in the same sequence, the figures for `Cc1ccccc1C(=O)Nc1cc(-c2cccs2)no1` were -6% and 1.01.
For the compound `CN1CCC[C@H](CN(C)C(=O)c2cc(Cn3ccc4ccccc43)[nH]n2)C1`, the “% Inhibition” value is given as -1% and the Z score was found to be 0.18.
Taken in the same sequence, the figures for `C#CCNC(=O)C1CC2CCCCC2N1S(=O)(=O)c1ccc2c(c1)OCCO2` (configuration not stated) were -6% and 0.93.
In the same order, the values of `C[C@@H](CNS(C)(=O)=O)OC(=O)CCc1cccc(N(C)C)c1` are -10% and 1.84.
Taken in the same sequence, the figures for `Cc1nc(C2CC(O)C2)cc(N2CCN(CCN(C)C)CC2)n1` (configuration not stated) were -7% and 0.65.
As for `Cn1c(CNCCn2cccn2)nc2ccccc21`, the “% Inhibition” value is on record as -6% and the Z score worked out at 0.6.
Taken in the same sequence, the figures for `CN(CCC1CCOCC1)Cc1cc(Cl)cc(S(N)(=O)=O)c1` were -6% and 0.86.
Taken in the same sequence, the figures for `OCC1(CNCc2ccc(Cl)o2)CCOCC1` were -6% and 0.66.
On to `O=C(NC1CCCCCC1)c1cscn1`, for which the “% Inhibition” value was -3% and the Z score is recorded as 0.4.
In the same order, the values of `O=S(=O)(c1ccc2c(c1)CCC2)N1CC[C@H](Cc2nncn2CC2CC2)C1` are -15% and 2.62.
In the same order, the values of `CN(Cc1ccccc1)S(=O)(=O)N1C[C@H](O)[C@@H](F)C1` are 3% and -0.63.
In the same order, the values of `O=C(c1cccs1)N1CC[C@H](Cc2nnc(-c3ccccc3)o2)C1` are -16% and 2.26.
Turning to `CN(C)CCNC(=O)c1cccn1-c1nnc(N2CCCCCC2)s1`, the “% Inhibition” value is -6% and the Z score amounted to 0.73.
In the same order, the values of `C[C@H]1CCCCN1C(=O)c1ccc(NCc2ncnn2C)cc1Cl` are -24% and 3.44.
In the same order, the values of `CC(C)c1ccc(C(=O)N2CCC3(CCCN(C)[C@@H]3C(=O)N(C)C)CC2)cc1` are -11% and 2.04.
In the case of `COC(=O)N1CCc2ccc(F)cc2[C@@H]1C(=O)Nc1cccc(C(C)=O)c1`, the “% Inhibition” value is on record as -7% and the Z score turned out to be 1.27.
`O=c1n(Cc2ccccc2)c2ccncc2n1Cc1ccc(CO)cc1`: the “% Inhibition” value is on record as -11% and the Z score came to 1.29.
In the same order, the values of `C[C@H](OC1CCCCCC1)C(=O)Nc1nc(-c2cnn(C)c2)cs1` are 0% and 0.02.
As to `N#Cc1nc(C2CC2)oc1N1CCN(C(=O)CCc2ccco2)CC1`, the “% Inhibition” value was -7% and the Z score is 1.41.
As to `CN(C(=O)OCC1CCCCC1)c1ccn(C)n1`, the “% Inhibition” value was found to be 4% and the Z score is listed as -0.5.
Taken in the same sequence, the figures for `Cn1nc(C(=O)Nc2cccc3c2OCCCO3)cc1C(F)F` were -7% and 1.12.
In the same order, the values of `O=C(C[C@@H]1C[C@H]2O[C@H](CNC(=O)Nc3cccs3)[C@@H](O)[C@H]2O1)NCc1ccc(F)cc1` are -11% and 1.94.
With `CN(C)S(=O)(=O)c1ccsc1C(=O)N1CC(C2CC2)C1C1CC1` (configuration not stated), the “% Inhibition” value is -8% and the Z score was 0.9.
In the same order, the values of `O=C(Cc1noc(CCCC2CC2)n1)Nc1ccc2c(c1)OCCO2` are -10% and 1.33.
Consider `CC(C)NC(=O)[C@@H](NS(=O)(=O)c1ccccc1F)C(C)C`, for which the “% Inhibition” value was -3% and the Z score came out at 0.38.
Taken in the same sequence, the figures for `CC1(C(=O)N[C@H]2CCN(c3cc(N4CCOCC4)cnn3)C2)CCCCC1` were -5% and 0.7.
As to `O=C(NC[C@H]1CCCCN(C(=O)C2CC=CC2)C1)C1CC=CC1`, the “% Inhibition” value is on record as -6% and the Z score turned out to be 1.12.
Taken in the same sequence, the figures for `CCOCC(O)CN(Cc1ccc(F)cc1)CC1CC(c2ccccc2)=NO1` (configuration not stated) were -9% and 0.84.
Taken in the same sequence, the figures for `Cc1cccc2c1OCC[C@@H]2NC(=O)NCc1cscn1` were -3% and 0.46.
In the same order, the values of `CC(C)Oc1ccccc1CN1CCC[C@](C)(COc2ccncc2)C1` are 2% and -0.23.
For `O=C(NCc1ccco1)c1csc(-c2ccnc(N3CCOCC3)c2)n1`, the “% Inhibition” value stood at 0% and the Z score was 0.
`CCCCc1nnc(NCc2snc(OC)c2Br)o1`: the “% Inhibition” value is on record as -10% and the Z score was found to be 1.06.
Taken in the same sequence, the figures for `O=C(N[C@H]1C[C@H](c2cc(N3CCCC3)ncn2)C1)c1cc(CO)ccn1` were -15% and 2.89.
In the same order, the values of `C[C@H](Nc1ccc(Oc2ccccc2C#N)c(F)c1)c1nnnn1C` are 0% and -0.03.
For the compound `COc1cncc(CCC(=O)NCCC(C)(C)C2CC2)c1`, the “% Inhibition” value was -8% and the Z score amounted to 1.54.
In the same order, the values of `Cc1nc(N)sc1C(=O)NCCc1cnn(C)c1` are -11% and 1.92.
In the same order, the values of `O=C(O)CC[C@@H]1CN(Cc2ccc(Cl)cc2)CC[C@@H]1N1CCCC1` are 6% and -0.7.
Taken in the same sequence, the figures for `CCC(CC)C(=O)NCCc1ccc(OC)cc1` were 0% and -0.05.
Take `COc1ccc(S(=O)(=O)NCc2cc(C)ncn2)cc1`: the “% Inhibition” value was found to be 8% and the Z score is -0.99.
Taken in the same sequence, the figures for `Cc1cnc(Cn2ccc3ccn(Cc4ccccc4F)c3c2=O)o1` were -2% and 0.42.
With `NC(=O)c1cncc(N2CCC(c3[nH]ncc3Cc3ccccc3)CC2)n1`, the “% Inhibition” value was -5% and the Z score came to 0.64.
Taken in the same sequence, the figures for `Cc1ccnc2ccc(C(=O)N[C@H]3CCc4nnnn4CC3)cc12` were 9% and -1.39.
Taken in the same sequence, the figures for `C=CCNc1nc(CC)nc2c1CCN(C(=O)c1cn(C)nc1C)CC2` were -12% and 2.14.
In the same order, the values of `CN(C)S(=O)(=O)NCCOc1ccc(F)cc1` are 2% and -0.22.
As to `O=C(CCc1ccccc1)N1CCC[C@H](c2nnc3n2CCN(C2CCCC2)C3)C1`, the “% Inhibition” value is recorded as -10% and the Z score turned out to be 1.84.
In the same order, the values of `CCOc1ncccc1C(=O)N(Cc1ccncc1)C1CCN(C)CC1` are -3% and 0.4.
Taken in the same sequence, the figures for `Cc1ccccc1OCCCNC(=O)c1c(C)c(C)n[nH]c1=O` were -7% and 0.59.
In the same order, the values of `Cc1ccc(CC(=O)N(CC(F)(F)F)C(C)C)cn1` are -1% and 0.2.
Consider `COCCN1CCN2C(=O)[C@H](Cc3ccccc3)N(C(=O)Cn3ccc(C)n3)C[C@H]2C1=O`, for which the “% Inhibition” value is on record as -5% and the Z score is 0.42.
As for `Cc1ccc(Br)c(C(=O)Nc2nccc(C)c2C2CC2)n1`, the “% Inhibition” value is listed as -8% and the Z score was 1.43.
In the same order, the values of `COc1ccc2cc(C(=O)N3C[C@H]4C[C@H](O)[C@@H](O)C[C@H]4C3)n(C)c2c1` are -14% and 2.2.
Taken in the same sequence, the figures for `COc1ccccc1CNC(=O)C1CC2CCC1C2` (configuration not stated) were -12% and 1.1.

(Values after ChEMBL document CHEMBL4888484, “Replenishing the malaria drug discovery pipeline: Screening and hit evaluation of the MMV Hit Generation Library 1 (HGL1) against asexual blood stage Plasmodium falciparum ,using a nano luciferase reporter read-out” (2022).)
